This is an account of results in the supplement of paper PMC11876631.

Residue numbers refer to the chain shown, from its start. Names and notes keep the numbering of the source. ± gives the standard deviation of the averaged measurements. Laboratory Escherichia coli strains with one amino-acid change in an essential protein, pooled on minimal glucose agar with carbenicillin or gentamicin at twice the control MIC (plus kanamycin and chloramphenicol for the plasmids), 48 h. Fold change of barcode share against drug-free plates; higher = less susceptible. Active = above 20 in both replicates (the paper's putatively resistant). '<' = one read or none on drug, '>' = one read or none on a drug-free plate. Shares are relative, so most strains fall below 1 when a few take over. Listed are strains with at least 15 reads on both drug-free plates, and hits; most hits rest on fewer reference reads. Replicate rank correlation about 0.5. Edits are read from barcodes. Where only a bound is given, the exact number is not on record here.

First the molecules themselves.
B1: ispE V146A (protein)
chain: MRTQWPSPAKLNLFLYITGQRADGYHTLQTLFQFLDYGDTISIELRDDGDIRLLTPVEGVEHEDNLIVRAARLLMKTAADSGRLPTGSGANISIDKRLPMGGGLGGGSSNAATVLVALNHLWQCGLSMDELAEMGLTLGADVPVFARGHAAFAEGVGEILTPVDPPEKWYLVAHPGVSIPTPVIFKDPELPRNTPKRSIETLLKCEFSNDCEVIARKRFREVDAVLSWLLEYAPSRLTGTGACVFAEFDTESEARQVLEQAPEWLNGFVAKGANLSPLHRAML
B2: ispE L115A (protein)
chain: B1 chain with L115A, A146V
B3: ispE V146W (protein)
chain: B1 chain with A146W
B4: ispE V146Q (protein)
chain: B1 chain with A146Q
B5: ispD V11A (protein)
chain: MATTHLDVCAAVPAAGFGRRMQTECPKQYLSIGNQTILEHSVHALLAHPRVKRVVIAISPGDSRFAQLPLANHPQITVVDGGDERADSVLAGLKAAGDAQWVLVHDAARPCLHQDDLARLLALSETSRTGGILAAPVRDTMKRAEPGKNAIAHTVDRNGLWHALTPQFFPRELLHDCLTRALNEGATITDEASALEYCGFHPQLVEGRADNIKVTRPEDLALAEFYLTRTIHQENT
B6: ispD V11P (protein)
chain: B5 chain with A11P
B7: ispD V55Q (protein)
chain: B5 chain with A11V, V55Q
B8: ispD V104D (protein)
chain: B5 chain with A11V, V104D
B9: ispD L103A (protein)
chain: B5 chain with A11V, L103A
B10: ispD L103W (protein)
chain: B5 chain with A11V, L103W
B11: ispD V12A (protein)
chain: B5 chain with A11V, V12A
B12: ispD V55W (protein)
chain: B5 chain with A11V, V55W
B13: ispD L103D (protein)
chain: B5 chain with A11V, L103D
B14: ispD V55A (protein)
chain: B5 chain with A11V, V55A
B15: ispD V104A (protein)
chain: B5 chain with A11V, V104A
B16: ispD V104W (protein)
chain: B5 chain with A11V, V104W
B17: ispD I56A (protein)
chain: B5 chain with A11V, I56A

One series has as its target Escherichia coli (laboratory strain). Put plainly: barcode share on antibiotic plates over drug-free plates; higher = less susceptible. The following applies: antibiotic: carbenicillin; 2× MIC (3.1 µg/mL). As for the experimental part: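 A pool of E. coli strains, each edited to carry one amino-acid change in an essential protein, was grown for 48 h on minimal glucose agar with or without antibiotic; strain barcodes were sequenced; mean of two replicates.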
Regarding B1, the “fold change of barcode share” value came to 0.364 ± 0.051.
Regarding B2, the “fold change of barcode share” value amounted to 0.538 ± 0.33.
As for B3, the “fold change of barcode share” value is 1.04 ± 0.32.
On the same count and under the same terms, under B4 stands 0.486 ± 0.064; under B5, 0.211 ± 0.025.
Same read-out and setting: under B6 stands 0.369 ± 0.19; under B7, 0.412 ± 0.14.
With B8, the “fold change of barcode share” value was found to be 0.38 ± 0.33.
For B9, the “fold change of barcode share” value amounted to 0.3569 ± 0.002.
Still for that read-out and setting: under B10 stands 0.164 ± 0.081; under B11, 0.179 ± 0.02.
Same read-out and setting: under B12 stands 0.296 ± 0.045.
Turning to B13, the “fold change of barcode share” value was determined as 0.288 ± 0.18.
Consider B14, for which the “fold change of barcode share” value was 0.335 ± 0.14.
For B15, the “fold change of barcode share” value was 0.223 ± 0.062.
As to B16, the “fold change of barcode share” value turned out to be 0.179 ± 0.11.
As for B17, the “fold change of barcode share” value is 0.254 ± 0.073.

The series is the same for the next values; noted with them: antibiotic: gentamicin; 2× MIC (MIC 0.45 µg/mL).
B1: the “fold change of barcode share” value turned out to be 0.00415 ± 0.0046.
For the protein B2, the “fold change of barcode share” value is 0.0028 ± 0.00033.
As for B3, the “fold change of barcode share” value is 3620 [active].
Take B4: the “fold change of barcode share” value was 0.0307 ± 0.03.
Still for that read-out and setting: under B5 stands 0.00159 ± 0.00078.
Turning to B6, the “fold change of barcode share” value was 0.0287 ± 0.021.
With B7, the “fold change of barcode share” value was found to be 0.338 ± 0.17.
On to B8, for which the “fold change of barcode share” value was less than 0.00964.
With B9, the “fold change of barcode share” value was less than 0.00674.
Still for that read-out and setting: under B10 stands less than 0.0114; under B11, 0.00572 ± 0.0067; under B12, less than 0.00836.
B13: the “fold change of barcode share” value was less than 0.00843.
On to B14, for which the “fold change of barcode share” value was 0.00769 ± 0.0054.
As for B15, the “fold change of barcode share” value is less than 0.00833.
As for B16, the “fold change of barcode share” value stood at 0.0198 ± 0.0041.
In the case of B17, the “fold change of barcode share” value was less than 0.00342.
